The text below walks through data of article PMC6639074.

Protein sequences, listed by entry. Tags and fused reporters are not part of them. Lines headed by an entry give the natural chain unless they say otherwise; changes in a name come on top.
UniProt P61019: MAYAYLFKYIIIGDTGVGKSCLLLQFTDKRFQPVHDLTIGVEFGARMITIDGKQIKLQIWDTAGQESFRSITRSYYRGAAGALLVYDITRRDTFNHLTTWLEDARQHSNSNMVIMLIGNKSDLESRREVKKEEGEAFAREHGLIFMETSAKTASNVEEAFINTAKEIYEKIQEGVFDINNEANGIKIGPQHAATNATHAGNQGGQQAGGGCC
UniProt P20339: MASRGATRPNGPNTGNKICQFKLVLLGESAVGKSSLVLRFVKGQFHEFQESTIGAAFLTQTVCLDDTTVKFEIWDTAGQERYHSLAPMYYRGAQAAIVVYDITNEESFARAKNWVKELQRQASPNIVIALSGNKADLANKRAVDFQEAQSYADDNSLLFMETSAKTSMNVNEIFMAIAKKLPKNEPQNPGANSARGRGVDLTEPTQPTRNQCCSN

No constants are given. Whether binding was seen depends on the method and setting. For some assays here: In cells and extracts the contact can be indirect. Some binding calls cover weakened binding; strength is not graded here. For some assays here: Tags and fused reporters may be left off the sequences shown.

The target in test [1] is T1, Rab9A(Q66L)-BirA*-HA-MAO (human) (UniProt P51151).
T1 sequence: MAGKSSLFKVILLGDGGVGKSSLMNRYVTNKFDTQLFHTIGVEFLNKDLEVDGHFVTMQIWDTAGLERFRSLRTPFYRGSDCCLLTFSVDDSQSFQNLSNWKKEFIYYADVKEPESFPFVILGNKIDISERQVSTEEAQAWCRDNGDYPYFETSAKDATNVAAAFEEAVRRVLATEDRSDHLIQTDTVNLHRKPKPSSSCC
Description: relocation to mitochondria (confocal microscopy); tagged protein co-expressed in cells (MEFs, HeLa) with the mitochondrial GTPase-BirA* chimera; relocation of the tagged protein to mitochondria.

The target of test [2] is T2, Rab9A(S21N)-BirA*-HA-MAO (human) (UniProt P51151).
T2 sequence: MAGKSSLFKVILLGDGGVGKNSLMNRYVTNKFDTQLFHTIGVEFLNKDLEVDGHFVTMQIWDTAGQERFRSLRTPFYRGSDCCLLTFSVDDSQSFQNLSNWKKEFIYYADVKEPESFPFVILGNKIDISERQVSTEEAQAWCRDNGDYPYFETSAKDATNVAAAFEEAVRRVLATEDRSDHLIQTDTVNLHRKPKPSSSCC
The test is described as above.

Test [3] has as its target T3, GST-Rab9A(Q66L) (human) (UniProt P51151).
T3 sequence: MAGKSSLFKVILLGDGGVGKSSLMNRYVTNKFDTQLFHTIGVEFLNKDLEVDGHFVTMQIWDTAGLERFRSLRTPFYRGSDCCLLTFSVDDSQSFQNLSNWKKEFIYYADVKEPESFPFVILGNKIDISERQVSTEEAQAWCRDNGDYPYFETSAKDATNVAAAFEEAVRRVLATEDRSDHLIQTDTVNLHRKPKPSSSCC
Description: pull-down; GST-Rab on glutathione Sepharose beads with GppNHp or GDP (100 uM), lysate of HEK293T cells (HeLa in the legend of Figure 7E), untransfected or expressing FLAG-HPS3; 1% Triton X-100, high salt elution, immunoblot; only the target purified. A general note: Immunoblotting shows a protein as a band on a membrane.

In test [4] the target is T3, GST-Rab9A(Q66L) (human). Description: pull-down; GST-Rab9A beads, pre-cleared lysate of E. coli expressing His6-NDE1, 2 hr 4 C, Coomassie gel and anti-His6 immunoblot; only the target purified.
In a further test the target is GST-Rab2A(Q65L) (human) (UniProt P61019). Description: pull-down; GST-Rab on glutathione Sepharose beads with GppNHp or GDP (100 uM), lysate of HEK293T cells (HeLa in the legend of Figure 7E), untransfected or expressing FLAG-HPS3; 1% Triton X-100, high salt elution, immunoblot; only the target purified.
In test [5] the target is Rab2A(Q65L)-BirA*-HA-MAO (human) (UniProt P61019). Description: relocation to mitochondria (confocal microscopy); tagged protein co-expressed in cells (MEFs, HeLa) with the mitochondrial GTPase-BirA* chimera; relocation of the tagged protein to mitochondria.
For the next test, the target named is GST-Rab5A(Q79L) (human) (UniProt P20339). Description: pull-down; GST-Rab on glutathione Sepharose beads with GppNHp or GDP (100 uM), lysate of HEK293T cells (HeLa in the legend of Figure 7E), untransfected or expressing FLAG-HPS3; 1% Triton X-100, high salt elution, immunoblot; only the target purified.

B1: FLAG-HPS3 (protein, UniProt Q969F9 1-1004)
chain: MVQLYNLHPFGSQQVVPCKLEPDRFCGGGRDALFVAAGCKVEAFAVAGQELCQPRCAFSTLGRVLRLAYSEAGDYLVAIEEKNKATFLRAYVNWRNKRTENSRVCIRMIGHNVEGPFSKAFRDQMYIIEMPLSEAPLCISCCPVKGDLLVGCTNKLVLFSLKYQIINEEFSLLDFERSLIIHIDNITPVEVSFCVGYVAVMSDLEVLIVKLESGPKNGERVHHHPHKTNNRIRRTEEGISNEISQLESDDFVICQKPLELLGEKSEQSGLSVTLESTGLADEKRKYSHFQHLLYRRFAPDISSYVLSDDIKLHSLQLLPIYQTGSLTSDGKNLSQEKELLSLFCFFSLPHVGYLYMVVKSVELMSVYQYPEKSQQAVLTPQFLHVITSNNLQCFTVRCSAAAAREEDPYMDTTLKACPPVSMDVCALRIQLFIGLKAICHFKNHIILLTKAEPEAIPERRQSPKRLLSRKDTSVKIKIPPVAEAGWNLYIVNTISPVQLYKEMVDYSNTYKTVKTQSCIHLLSEAHLLVRAALMDASQLEPGEKAELLEAFKESCGHLGDCYSRLDSQHSHLTLPYYKMSGLSMAEVLARTDWTVEDGLQKYERGLIFYINHSLYENLDEELNEELAAKVVQMFYVAEPKQVPHILCSPSMKNINPLTAMSYLRKLDTSGFSSILVTLTKAAVALKMGDLDMHRNEMKSHSEMKLVCGFILEPRLLIQQRKGQIVPTELALHLKETQPGLLVASVLGLQKNNKIGIEEADSFFKVLCAKDEDTIPQLLVDFWEAQLVACLPDVVLQELFFKLTSQYIWRLSKRQPPDTTPLRTSEDLINACSHYGLIYPWVHVVISSDSLADKNYTEDLSKLQSLICGPSFDIASIIPFLEPLSEDTIAGLSVHVLCRTRLKEYEQCIDILLERCPEAVIPYANHELKEENRTLWWKKLLPELCQRIKCGGEKYQLYLSSLKETLSIVAVELELKDFMNVLPEDGTATFFLPYLLYCSRKKPLT
For the molecule B1, the results for the binding entry (in test [1]; in test [2]; in the test with GST-Rab9A(Q66L) (human) [3]) were “binds”, “no binding” and “binds”, respectively.

B2: His6-Nde1 (protein, UniProt Q9NXR1 1-335)
chain: MEDSGKTFSSEEEEANYWKDLAMTYKQRAENTQEELREFQEGSREYEAELETQLQQIETRNRDLLSENNRLRMELETIKEKFEVQHSEGYRQISALEDDLAQTKAIKDQLQKYIRELEQANDDLERAKRATIMSLEDFEQRLNQAIERNAFLESELDEKENLLESVQRLKDEARDLRQELAVQQKQEKPRTPMPSSVEAERTDTAVQATGSVPSTPIAHRGPSSSLNTPGSFRRGLDDSTGGTPLTPAARISALNIVGDLLRKVGALESKLASCRNLVYDQSPNRTGGPASGRSSKNRDGGERRPSSTSVPLGDKGLDTSCRWLSKSTTRSSSSC
Turning to B2, the binding result with GST-Rab9A(Q66L) (human) [4] is “binds”.

B3: STAMBPL1 (protein, UniProt Q96FJ0 1-436)
chain: MDQPFTVNSLKKLAAMPDHTDVSLSPEERVRALSKLGCNITISEDITPRRYFRSGVEMERMASVYLEEGNLENAFVLYNKFITLFVEKLPNHRDYQQCAVPEKQDIMKKLKEIAFPRTDELKNDLLKKYNVEYQEYLQSKNKYKAEILKKLEHQRLIEAERKRIAQMRQQQLESEQFLFFEDQLKKQELARGQMRSQQTSGLSEQIDGSALSCFSTHQNNSLLNVFADQPNKSDATNYASHSPPVNRALTPAATLSAVQNLVVEGLRCVVLPEDLCHKFLQLAESNTVRGIETCGILCGKLTHNEFTITHVIVPKQSAGPDYCDMENVEELFNVQDQHDLLTLGWIHTHPTQTAFLSSVDLHTHCSYQLMLPEAIAIVCSPKHKDTGIFRLTNAGMLEVSACKKKGFHPHTKEPRLFSICKHVLVKDIKIIVLDLR
B3: the binding result with GST-Rab2A(Q65L) (human) is “binds”.

B4: GFP-FLAG-STAMBPL1 (protein, UniProt Q96FJ0 1-436)
chain: MDQPFTVNSLKKLAAMPDHTDVSLSPEERVRALSKLGCNITISEDITPRRYFRSGVEMERMASVYLEEGNLENAFVLYNKFITLFVEKLPNHRDYQQCAVPEKQDIMKKLKEIAFPRTDELKNDLLKKYNVEYQEYLQSKNKYKAEILKKLEHQRLIEAERKRIAQMRQQQLESEQFLFFEDQLKKQELARGQMRSQQTSGLSEQIDGSALSCFSTHQNNSLLNVFADQPNKSDATNYASHSPPVNRALTPAATLSAVQNLVVEGLRCVVLPEDLCHKFLQLAESNTVRGIETCGILCGKLTHNEFTITHVIVPKQSAGPDYCDMENVEELFNVQDQHDLLTLGWIHTHPTQTAFLSSVDLHTHCSYQLMLPEAIAIVCSPKHKDTGIFRLTNAGMLEVSACKKKGFHPHTKEPRLFSICKHVLVKDIKIIVLDLR
Turning to B4, the binding result in test [5] is given as “binds”.

B5: RELCH/KIAA1468 (protein, UniProt Q9P260 1-1216)
chain: MAAMAPGGSGSGGGVNPFLSDSDEDDDEVAATEERRAVLRLGAGSGLDPGSAGSLSPQDPVALGSSARPGLPGEASAAAVALGGTGETPARLSIDAIAAQLLRDQYLLTALELHTELLESGRELPRLRDYFSNPGNFERQSGTPPGMGAPGVPGAAGVGGAGGREPSTASGGGQLNRAGSISTLDSLDFARYSDDGNRETDEKVAVLEFELRKAKETIQALRANLTKAAEHEVPLQERKNYKSSPEIQEPIKPLEKRALNFLVNEFLLKNNYKLTSITFSDENDDQDFELWDDVGLNIPKPPDLLQLYRDFGNHQVTGKDLVDVASGVEEDELEALTPIISNLPPTLETPQPAENSMLVQKLEDKISLLNSEKWSLMEQIRRLKSEMDFLKNEHFAIPAVCDSVQPPLDQLPHKDSEDSGQHPDVNSSDKGKNTDIHLSISDEADSTIPKENSPNSFPRREREGMPPSSLSSKKTVHFDKPNRKLSPAFHQALLSFCRMSADSRLGYEVSRIADSEKSVMLMLGRCLPHIVPNVLLAKREELIPLILCTACLHPEPKERDQLLHILFNLIKRPDDEQRQMILTGCVAFARHVGPTRVEAELLPQCWEQINHKYPERRLLVAESCGALAPYLPKEIRSSLVLSMLQQMLMEDKADLVREAVIKSLGIIMGYIDDPDKYHQGFELLLSALGDPSERVVSATHQVFLPAYAAWTTELGNLQSHLILTLLNKIEKLLREGEHGLDEHKLHMYLSALQSLIPSLFALVLQNAPFSSKAKLHGEVPQIEVTRFPRPMSPLQDVSTIIGSREQLAVLLQLYDYQLEQEGTTGWESLLWVVNQLLPQLIEIVGKINVTSTACVHEFSRFFWRLCRTFGKIFTNTKVKPQFQEILRLSEENIDSSAGNGVLTKATVPIYATGVLTCYIQEEDRKLLVGFLEDVMTLLSLSHAPLDSLKASFVELGANPAYHELLLTVLWYGVVHTSALVRCTAARMFELTLRGMSEALVDKRVAPALVTLSSDPEFSVRIATIPAFGTIMETVIQRELLERVKMQLASFLEDPQYQDQHSLHTEIIKTFGRVGPNAEPRFRDEFVIPHLHKLALVNNLQIVDSKRLDIATHLFEAYSALSCCFISEDLMVNHFLPGLRCLRTDMEHLSPEHEVILSSMIKECEQKVENKTVQEPQGSMSIAASLVSEDTKTKFLNKMGQLTTSGAMLANVFQRKK
Consider B5, for which the binding entry with GST-Rab5A(Q79L) (human) is on record as “binds”.

B6: OSBPL9 (protein, UniProt Q96SU4 1-736)
chain: MASIMEGPLSKWTNVMKGWQYRWFVLDYNAGLLSYYTSKDKMMRGSRRGCVRLRGAVIGIDDEDDSTFTITVDQKTFHFQARDADEREKWIHALEETILRHTLQLQGLDSGFVPSVQDFDKKLTEADAYLQILIEQLKLFDDKLQNCKEDEQRKKIETLKETTNSMVESIKHCIVLLQIAKDQSNAEKHADGMISTINPVDAIYQPSPLEPVISTMPSQTVLPPEPVQLCKSEQRPSSLPVGPVLATLGHHQTPTPNSTGSGHSPPSSSLTSPSHVNLSPNTVPEFSYSSSEDEFYDADEFHQSGSSPKRLIDSSGSASVLTHSSSGNSLKRPDTTESLNSSLSNGTSDADLFDSHDDRDDDAEAGSVEEHKSVIMHLLSQVRLGMDLTKVVLPTFILERRSLLEMYADFFAHPDLFVSISDQKDPKDRMVQVVKWYLSAFHAGRKGSVAKKPYNPILGEIFQCHWTLPNDTEENTELVSEGPVPWVSKNSVTFVAEQVSHHPPISAFYAECFNKKIQFNAHIWTKSKFLGMSIGVHNIGQGCVSCLDYDEHYILTFPNGYGRSILTVPWVELGGECNINCSKTGYSANIIFHTKPFYGGKKHRITAEIFSPNDKKSFCSIEGEWNGVMYAKYATGENTVFVDTKKLPIIKKKVRKLEDQNEYESRSLWKDVTFNLKIRDIDAATEAKHRLEERQRAEARERKEKEIQWETRLFHEDGECWVYDEPLLKRLGAAKH
With B6, the binding entry with GST-Rab5A(Q79L) (human) is given as “binds”.
